# According to paper PMC4336329 (PLoS ONE, 2015):
# About 2,200 (0.71%) of roughly 310,000 compounds showed an effect of 50% or more. The effect is printed as a negative number. The list shows a part of the results.
# Target: human ether-à-go-go-related gene (hERG) potassium channel (human, UniProt Q12809)
# Experiment: primary screen, population patch clamp on CHO cells stably expressing hERG
# Chain of human ether-à-go-go-related gene (hERG) potassium channel (Q12809 whole entry, looked up): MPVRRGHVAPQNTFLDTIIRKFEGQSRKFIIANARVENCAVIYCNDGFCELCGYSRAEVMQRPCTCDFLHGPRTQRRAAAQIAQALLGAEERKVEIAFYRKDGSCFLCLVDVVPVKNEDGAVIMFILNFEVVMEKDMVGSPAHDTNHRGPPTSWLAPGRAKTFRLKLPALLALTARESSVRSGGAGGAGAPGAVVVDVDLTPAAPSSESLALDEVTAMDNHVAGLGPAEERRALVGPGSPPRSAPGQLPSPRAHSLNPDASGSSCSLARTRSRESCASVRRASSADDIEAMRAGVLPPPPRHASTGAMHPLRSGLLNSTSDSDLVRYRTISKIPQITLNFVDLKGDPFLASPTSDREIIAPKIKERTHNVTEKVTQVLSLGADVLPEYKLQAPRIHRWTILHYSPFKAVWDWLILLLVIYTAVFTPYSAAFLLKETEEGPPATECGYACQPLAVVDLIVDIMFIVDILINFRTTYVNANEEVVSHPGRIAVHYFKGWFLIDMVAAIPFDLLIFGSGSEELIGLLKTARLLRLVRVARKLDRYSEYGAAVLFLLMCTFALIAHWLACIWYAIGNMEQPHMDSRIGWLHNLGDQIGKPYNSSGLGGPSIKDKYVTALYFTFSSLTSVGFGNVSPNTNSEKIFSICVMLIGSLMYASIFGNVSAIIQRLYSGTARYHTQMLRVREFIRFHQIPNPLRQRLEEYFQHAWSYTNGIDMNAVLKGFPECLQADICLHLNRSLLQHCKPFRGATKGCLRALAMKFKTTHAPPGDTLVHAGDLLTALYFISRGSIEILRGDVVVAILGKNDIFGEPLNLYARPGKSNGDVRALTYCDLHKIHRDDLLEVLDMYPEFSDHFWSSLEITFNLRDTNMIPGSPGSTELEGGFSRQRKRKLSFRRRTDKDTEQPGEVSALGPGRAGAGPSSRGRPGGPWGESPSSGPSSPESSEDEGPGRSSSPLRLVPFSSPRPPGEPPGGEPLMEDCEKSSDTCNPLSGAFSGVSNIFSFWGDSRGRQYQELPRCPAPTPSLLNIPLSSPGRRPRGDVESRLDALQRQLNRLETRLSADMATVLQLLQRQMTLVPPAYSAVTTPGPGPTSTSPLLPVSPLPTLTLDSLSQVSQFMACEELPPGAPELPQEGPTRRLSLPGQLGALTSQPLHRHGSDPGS
row,SMILES,"hERG current change (%, negative = inhibition) at 1uM [%]"
1,O=C(CN1CCOc2ccccc21)NC1CC1,-1.91
2,CC(=O)Nc1nnc(SCc2ccc(F)cc2)s1,15.3
3,CC(O)Cc1cn(CC(=O)N2CCNCC2)nn1.Cl (stereo not shown),7.68
4,CC1=CCC2C(=O)N(c3ccccc3OC(=O)c3ccccc3F)C(=O)C2C1 (stereo not shown),-5.19
5,CCN(C(=O)COC(=O)CSc1ccc(F)cc1)c1c(N)n(Cc2ccccc2)c(=O)[nH]c1=O,9.5
6,Fc1ccc(OCc2cc(-c3ccccc3)no2)cc1,15.7
7,CCOc1ccccc1CNC(=O)c1nn(C)c2c1CS(=O)(=O)c1ccccc1-2,13.3
8,Cc1cccc(-c2cc(=O)c(C(=O)O)cn2-c2ccc(F)cc2F)c1,9.46
9,Cc1ccc(/C=C2\SC(=S)N(CCCC(=O)Nc3nccs3)C2=O)cc1,14.1
10,COc1ccc(NC(=S)NCCSc2ccc(Cl)cc2)c(OC)c1,3.18
11,N#Cc1cccc(C#N)c1Oc1ccc(N)cc1,10.9
12,CCOc1ccc(CCNC(=O)COC(=O)CSc2ccccc2C)cc1OCC,4.92
13,N#C/C(=C/c1cc(Br)cs1)C(=O)NCC1CCCO1 (stereo not shown),2.65
14,Cc1ccc(S(=O)(=O)N(C)C)cc1NC(=O)C(C)OC(=O)c1ccc2c(c1)OCCO2 (stereo not shown),9.13
15,O=C(Nc1cccc(C(F)(F)F)c1)/C(=C/c1ccco1)NC(=O)c1cccs1,-3.16
16,CCOc1ccc(S(=O)(=O)Nc2ccc(C(=O)N3CC(C)OC(C)C3)cc2)cc1 (stereo not shown),10.6
17,CCn1cc(C(=O)NCc2ccccc2)c2ccccc21,18.8
18,COC(=O)c1c(C)[nH]c(C(=O)C(C)OC(=O)C2CC2)c1C (stereo not shown),10
19,COc1ccc(C(=O)Nc2c(N)nc(SCC(=O)c3ccccc3)[nH]c2=O)cc1,15.2
20,COc1cc(C(=O)NC2CCN(Cc3ccccc3)CC2)cc(Cl)c1OC(C)C,-21.2

row,SMILES,"hERG current change (%, negative = inhibition) at 1uM [%]"
1,CC1CN(S(=O)(=O)c2cccc(C(=O)OCc3cc(=O)oc4cc(O)ccc34)c2)CC(C)O1 (stereo not shown),8.28
2,O=C(CN1CCCCC1)N1N=C(c2cccs2)CC1c1cccs1 (stereo not shown),-5.93
3,COc1cc(C(=O)NNC(=O)c2cc(S(=O)(=O)N(C)C)ccc2N2CCCC2)cc(OC)c1OC,16.2
4,COc1ccc2cc(CCNC(=O)C(C)C)c(=O)[nH]c2c1,14.5
5,CC(C)[C@H](NC(=O)N1CC(=O)Nc2ccccc21)C(=O)N1CCC[C@H]1C(=O)O,14.1
6,CC1=C(C(=O)OC2CCCCC2)C(c2cccs2)n2c(nc3ccccc32)N1 (stereo not shown),-1.23
7,CN=C(SCC(=O)c1cccc(Cl)c1)c1c(O)n(C)c(=O)n(C)c1=O,2.8
8,CCOc1ccc2oc(C(=O)NNC(=O)c3ccccc3O)c(C)c2c1,10.9
9,Cn1c(Cc2ccccc2)nnc1SCC(=O)N1CCN(c2ccccc2)CC1,6.18
10,CCc1cc(=O)oc2cc(C)c3c(C)coc3c12,12.7
11,COc1ccc(-c2cc3nc4n(c(=O)c3s2)CCC4)cc1,12.2
12,O=C1N2CCSC2=NC1(Nc1nccs1)C(F)(F)F (stereo not shown),12.2
13,C=CCOC(=O)C1=C(C)N=C2SCCC(=O)N2C1c1cccs1 (stereo not shown),4.5
14,O=C(CCN1C(=O)C2CCCCC2C1=O)N1CCN(S(=O)(=O)c2ccccc2)CC1 (stereo not shown),8.23
15,Cc1ccc(NC(=O)CN(C)C(=O)CCSc2ccc(F)cc2)cc1,5.57
16,COC(CNC(=O)c1ccc2c(=O)n(Cc3ccc4c(c3)OCO4)c(=S)[nH]c2c1)OC,10.7
17,CCOc1ccc(NC(=O)CN(c2cc(C)cc(C)c2)S(=O)(=O)c2c(C)noc2C)cc1,1.6
18,COc1ccc(C2CC(Cn3cc(C#N)c(=O)n(C)c3=O)ON2C)cc1 (stereo not shown),15.9
19,Clc1ccc2c(N3CCCC3)ccnc2c1,-25.9
20,ONC=Nc1cccc2nonc12,11.1

row,SMILES,"hERG current change (%, negative = inhibition) at 1uM [%]"
1,Cc1ccc(C2N3CCCN23)cc1 (stereo not shown),12.5
2,NS(=O)(=O)c1ccc(CCn2c(=S)[nH]c3ccc(F)cc3c2=O)cc1,9.41
3,Cc1ccc(CN2CCSCC2)cc1,15.2
4,FC(F)(F)c1cc(Oc2ccccc2)ncc1-c1nnc(-c2ccccc2Cl)o1,5.61
5,Cc1cc(C(F)(F)F)nc(SCCN2CCOCC2)c1C#N,5.97
6,N#CCCn1cc(C(=O)Nc2ccc([N+](=O)[O-])cc2)c(-c2ccccc2)n1,-67.8
7,CCOC(=O)N1CCN(C(=O)CCc2ccc(S(=O)(=O)NCC(C)C)cc2)CC1,8.99
8,COC(=O)C1=C(C)OC(N)=C(C#N)C1c1ccccc1 (stereo not shown),15.9
9,Cn1c(O)c(N=NC(=O)Cn2ccc(C(F)(F)F)n2)c2ccccc21,16.6
10,CCc1cccc(NC(=O)COc2ccccc2)c1,16.1
11,Cc1ccc(-c2nn(Cc3ccccc3)cc2C(=O)N2CCN(c3ccccn3)CC2)cc1,-11.2
12,O=C(CN1C(=O)c2ccccc2S1(=O)=O)NC1CCCCCC1,0.533
13,C=CCSc1nc2c(c(=O)[nH]c(=O)n2C)n1CC,3.31
14,COc1ccc(S(=O)(=O)N2CCN(C/C=C/c3ccccc3)CC2)cc1NC(C)=O,-54.2
15,COc1cccc(OC)c1C(=O)NNC(=O)c1ccccc1-n1cccc1,10.9
16,CNC(=O)c1[nH]cnc1C(=O)Nc1ccccn1,10.6
17,CCC(=O)Nc1c2c(nn1-c1ccc(C)cc1)CS(=O)(=O)C2,10.2
18,Cc1ccc(CCNC(=O)C2CCCN(c3ncnc4c3nc3n4CCCCC3)C2)cc1 (stereo not shown),-5.01
